Data published in PubChem BioAssay AID686979 (National Center for Advancing Translational Sciences (NCATS), 2013).
“And” between values parts separate entries of the source, which are not always exact repeats. Equal values may be shown once. The campaign covered roughly 420,000 compounds. About 50,000 (12%) were called active. Inconclusive means that the source gave no clear call. Such entries were picked first, then a sample of the others. Calls come from the whole dose curve; as a rule, active = well fitted inhibition curve with a large enough effect; inconclusive = small, poorly fitted or top-dose-only effect; inactive = flat fitted curve, though single readings scatter. Potencies of inconclusive entries are left out as doubtful fits.

assay: qHTS for Inhibitors of human tyrosyl-DNA phosphodiesterase 1 (TDP1): qHTS in cells in presence of CPT; conditions: chicken DT40 Tdp1-/-;hTDP1 cells + 20 nM CPT, ATP luminescence, 48 h; series mostly up to 46.2 µM; note: nearly all actives have a fitted effect of over 55% in size
How it was run: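 Cell growth measured by CellTiter-Glo luminescence after a minimum 48 h, 37 C compound exposure with 20 nM CPT in Tdp1-knockout DT40 cells stably expressing hTDP1, seeded 400/well; qHTS titration format.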
Potency is the fitted concentration of half-maximal effect; tags give direction and shape of the fitted curve.

| Compound | Potency |
| --- | --- |
| CCCOc1ccc(C(=O)NC(=S)Nc2nc(C)c(C(=O)N(C)C)s2)cc1 | inactive |
| COC(=O)C1OC(=O)C2OC23[C@]2(C)C(OC(C)=O)CC4C(C)(C)C(=O)CC[C@]4(C)C2CC[C@@]13C (stereo partly specified) | inactive |
| COc1ccc(NS(=O)(=O)c2cc(NC(=O)c3ccco3)ccc2N2CCCCC2)cc1 | inconclusive [inhibitor, single point] |
| Cn1c(=O)n(C)c2cc(N3CCOCC3)c(NS(=O)(=O)c3cccc(C#N)c3)cc21 | active: 18.4 µM |
| O=C(c1ccc2snnc2c1)N1CCOCC1 | inactive |
| COc1ccc(-c2nc(SCC(=O)N3CCOCC3)n[nH]2)cc1 | inactive |
| Cc1cc(C(=O)OCC(=O)N2C(C)CCCC2C)c2ccccc2n1 (stereo unspecified) | inactive |
| COc1ccccc1CNC(=O)CCCCn1c(=O)c2ccccc2n(Cc2ccccc2F)c1=O | active: 3.66 µM |
| Oc1c(CN2CCOCC2)cc(COCc2ccccc2)c2cccnc12 | active: 4.61 µM |
| CCn1c(COc2ccccc2C)nc2ccccc21 | inconclusive [inhibitor, partial curve] |
| COc1ccc(NC(=O)Nc2cccc(C(F)(F)F)c2)cn1 | inconclusive [inhibitor, single point] |
| CCCCCCC[n+]1c(/C=C/c2ccc(N(C)C)cc2)sc2ccccc21 | active: 0.158 µM |
| COC(=O)NC(=S)Nc1ccc(Oc2ccc(Cl)cc2)c(Cl)c1 | inconclusive [inhibitor, full curve, poor fit] |
| CCS(=O)(=O)Nc1cc(C(=O)N2CCCN(C=O)CC2)c2c(c1)nc(-c1ccccc1)n2C | inactive |
| CCN1CCN(c2nc(-c3cccs3)nc3ccccc23)CC1 | inactive |
| Cc1ccc(CNC(=O)CSc2nc3ccccc3nc2Cc2ccc(C)cc2)cc1 | inconclusive [inhibitor, single point] |
| CCN1CCN(Cc2ccc(NC(=O)c3ccc(C)c(NC(=O)c4c[nH]c5cc(C(F)(F)F)ccc5c4=O)c3)cc2C(F)(F)F)CC1 | active: 5.17 µM and active: 4.61 µM |
| O=C(N[C@@H](Cc1ccccc1)C(=O)N1CCC2(CC1)NCCc1[nH]cnc12)c1cccc(Br)c1 | active: 10.3 µM |
| COc1ccc(CNC(=O)[C@@H]2CC=C[C@@H]3CCN(C4CCCCC4)C(=O)[C@@H]32)cc1 | inconclusive [inhibitor, single point] |
| CC1Oc2ccc(C#N)cc2N(Cc2ccc(F)cc2)C1=O (stereo unspecified) | inactive |
| Cc1ccc(CCNC(=O)C2CCN(S(=O)(=O)c3ccc4c(ccn4C)c3)CC2)cc1 | inconclusive [inhibitor, single point] |
| CCOC(=O)c1cc(-c2ccc(C)cc2)n(CCC(=O)NC(C)CC)c1C (stereo unspecified) | inconclusive [inhibitor, partial curve] |
| O=C(COC(=O)/C=C/c1cccc(Cl)c1)NC1CCCC1 | inactive |
| Cc1ccccc1NC1=NC2(CCCC2)N=C(N)N1 | inactive |
| CCn1c(SCc2ccc(F)cc2)nc2ccccc2c1=O | inactive |
| O=C(c1ccc(Cl)c(S(=O)(=O)N2CCCC2)c1)N1CCN(c2ccccc2F)CC1 | inconclusive [inhibitor, single point] |

| Compound | Potency |
| --- | --- |
| CCCCc1ccc(NS(=O)(=O)c2c(C)n(C)c(=O)n(C)c2=O)cc1 | inconclusive [inhibitor, single point] |
| Cc1c(C(=O)c2ccc(Cl)c(Cl)c2)cnc2cc3c(cc12)OCO3 | inconclusive [inhibitor, single point] |
| Cc1cccc(-c2nc3c(cnn3-c3ccccc3)c(=O)n2-c2ccc(Cl)cc2)c1 | inconclusive [inhibitor, single point] |
| Cc1ccccc1C(=O)N(C)[C@H]1C[C@H]2c3[nH]c4ccccc4c3CCN2C(=O)[C@H]1[C@H](C)O | inconclusive [inhibitor, single point] |
| COc1ccc(-c2nn3c(-c4ccccc4)nnc3s2)cc1OC | inconclusive [inhibitor, single point] |
| O=C(O)CSCC(=O)N1CCCN(c2ccc(C(F)(F)F)cn2)CC1 | inactive |
| COc1ccc(S(=O)(=O)NCC(c2ccco2)S(=O)(=O)c2cccs2)cc1F (stereo unspecified) | inconclusive [inhibitor, single point] |
| O=C(NCc1ccncc1)Nc1ccccc1Cl | inactive |
| COc1ccc(NC(=O)CSc2nc(C)cc(C)c2C(=O)Nc2ccccc2OC)cc1 | inconclusive [inhibitor, single point] |
| Cc1cc(F)cc(-c2cc(C(=O)NCc3cccc(Cl)c3)[nH]n2)c1 | inconclusive [inhibitor, single point] |
| COc1ccc(CCn2c(-c3ccco3)nc3nc4ccccc4nc32)cc1 | active: 16.4 µM |
| Cc1cc(C)n2c(SCc3cccs3)nnc2n1 | inactive |
| COc1cc(=O)n2c(c1C(=O)N(C)C(C)c1ccco1)CCN(C(=O)c1ccc(C(C)=O)cc1)CC2 (stereo unspecified) | inactive |
| Cc1ccc(-n2ncc3c2CC(C)(C)CC3NC(=O)c2ccncc2)cc1 (stereo unspecified) | inactive |
| CCOc1cc(-c2cc(-c3ccc(C)cc3)nc(N)c2C#N)ccc1O | inconclusive [inhibitor, single point] |
| COc1cc(CNCCc2c[nH]c3ccccc23)ccc1OCc1ccccc1F | active: 18.4 µM |
| CCCOc1ccc(CNC(=S)N/N=C/c2ccc([N+](=O)[O-])cc2)cc1 | inconclusive [inhibitor, single point] |
| Cc1cc2cc(C(c3nnnn3Cc3ccco3)N3CCc4ccccc4C3)c(=O)[nH]c2cc1C (stereo unspecified) | inconclusive [inhibitor, single point] |
| COc1cc2c(cc1OC)CN(CC(=O)Nc1ccc(F)cc1F)CC2 | inactive |
| CCC1S/C(=N/N=C/c2ccco2)N(Cc2ccc(F)cc2)C1=O (stereo unspecified) | inconclusive [inhibitor, single point] |
| COc1ccc(C2/C=C\CN(Cc3ccncc3)CC(=O)N2Cc2ccc(F)cc2)cc1 (stereo unspecified) | inconclusive [inhibitor, single point] |
| CCOc1ccc2c(c1)c1nnc(SCC(=O)N3CCC(C)CC3)nc1n2C | inconclusive [inhibitor, single point] |
| COc1cc2c(cc1OC)C(c1ccccc1)NCC2 (stereo unspecified) | inactive |
| CCN(CC)c1nc(C)nc2c1cnn2CCc1ccccc1 | inconclusive [inhibitor, partial curve] |
| CC(N=C1NS(=O)(=O)c2ccccc21)c1ccccc1 (stereo unspecified) | inconclusive [inhibitor, single point] |
| COc1ccc(Br)cc1-c1noc(-c2ccccc2F)n1 | inactive |

| Compound | Potency |
| --- | --- |
| Cc1cccc(-c2nc(SCc3cc(=O)c4c(C)cc(C)cc4[nH]3)n[nH]2)c1 | inconclusive [inhibitor, single point] |
| Cc1c(C(=O)N/N=C/c2ccccc2)[nH]c2c([N+](=O)[O-])cccc12 | active: 0.651 µM |
| C[C@H](O)[C@@H]1CN2CCc3c([nH]c4ccc(-c5ccc6c(c5)OCO6)cc34)[C@@H]2C[C@@H]1N(C)C(=O)NC1CCCCC1 | inactive |
| CN1CCN(c2ccc(NC(=O)c3cccc(OCc4ccccc4)c3)cc2)CC1 | active: 23.1 µM |
| CC1=NN(C(N)=S)C(=O)C1N=Nc1ccc(F)cc1 (stereo unspecified) | inactive |
| CC(C)S(=O)(=O)c1csc(C(=O)NNC(=O)Nc2ccccc2)c1Cl | inconclusive [inhibitor, single point] |
| COc1ccc(NC(=O)CNC(=O)Cc2cccc3ccccc23)cc1 | inconclusive [inhibitor, single point] |
| C=CCc1cc(C=O)cc(OCC)c1O | inactive |
| CCOC(=O)c1c(-c2ccccc2)csc1NC(=O)CCN1CCOCC1 | inconclusive [inhibitor, single point] |
| COc1ccc(COC(=O)C2CCN(S(=O)(=O)c3ccc(OC)c(OC)c3)CC2)cc1 | inactive |
| c1ccc2[nH]c(-c3nc4ccccc4[nH]3)nc2c1 | inconclusive [inhibitor, single point] |
| Cc1ccc(N=c2oc3cc(O)ccc3cc2C(N)=O)cc1 | active: 8.2 µM |
| Nc1nc(-c2ccc3ccccc3c2)cs1 | inactive |
| O=S(=O)(/C=C/c1ccccc1)Nc1ccc(N2CCOCC2)cc1 | inconclusive [inhibitor, single point] |
| Cc1ccc(S(=O)(=O)NCc2ccc(C(=O)N3CCN(c4ccccc4)CC3)cc2)cc1 | inconclusive [inhibitor, single point] |
| COc1ccc(CC(=O)N/N=C/c2ccc(C)s2)cc1 | inactive |
| c1ccc(CSC2=NNC(c3ccccn3)S2)cc1 (stereo unspecified) | active: 0.0058 µM |
| COc1ccc(CN(C(=O)Cc2cccs2)C(C(=O)NC2CCCC2)c2ccncc2)cc1 (stereo unspecified) | inconclusive [inhibitor, partial curve] |
| COc1ccccc1Oc1cc(C#N)c(C#N)cc1-n1nnc2ccccc21 | active: 23.1 µM |
| COC(=O)C1=C(C)N(CCCCCC(=O)O)C(=O)NC1c1ccccc1 (stereo unspecified) | inactive |
| CC1C(=O)N2CCCc3cc(NC(=O)C4CCCCC4)cc1c32 (stereo unspecified) | inactive |
| Cc1cccc(CSc2cn(CC(=O)N3CCOCC3)c3ccccc23)c1 | inconclusive [inhibitor, single point] |
| Cn1c(=O)c2c(-c3ccccc3)n(-c3ccccc3)cc2n(C)c1=O | active: 3.66 µM |
| C=CCN(CC=C)C(=S)NC(=O)Cc1cccc2ccccc12 | inconclusive [inhibitor, single point] |
